The other results are listed elsewhere or left out.
How the values were obtained:
[1] = test system: HSkMC (human skeletal muscle cells); experiment: cytotoxicity call (relative viability < 0.9); details: 10 µM
[2] = test system: HepG2; experiment: cytotoxicity call (relative viability < 0.9); details: 10 µM
[3] = test system: S. aureus RN4220; experiment: growth inhibition call (relative growth <= 0.2); details: 50 µM

Row | SMILES | cytotoxicity call [1] | cytotoxicity call [2] | growth inhibition call [3]
1 | CC(=O)NO | inactive | inactive | inactive
2 | C[C@H](CO)N1C[C@H](C)[C@H](CN(C)S(=O)(=O)c2ccc(Cl)cc2)Oc2ccc(NC(=O)Nc3ccc(C(F)(F)F)cc3)cc2CC1=O | active | active | inactive
3 | COCC(=O)N(C)C[C@H]1Oc2cc(-c3ccc(OC)cc3)ccc2S(=O)(=O)N([C@@H](C)CO)C[C@@H]1C | inactive | inactive | inactive
4 | C[C@@H]1CN([C@H](C)CO)S(=O)(=O)c2ccc(C#CC3(O)CCCC3)cc2O[C@@H]1CN(C)C(=O)Cc1ccccc1 | inactive | inactive | inactive
5 | COc1ccc(NC(=O)Nc2cccc3c2O[C@H](CN(C)C(=O)Nc2ccc(C(F)(F)F)cc2)[C@H](C)CN([C@@H](C)CO)C3=O)cc1 | inactive | inactive | inactive
6 | C[C@@H]1CN([C@H](C)CO)C(=O)c2cc(NC(=O)Nc3ccc(C(F)(F)F)cc3)ccc2O[C@@H](C)CCCCO[C@H]1CN(C)S(=O)(=O)c1ccc(Cl)cc1 | inactive | inactive | inactive
7 | Cc1ccc(S(=O)(=O)N(C)C[C@H]2OCCCC[C@@H](C)Oc3ccc(NS(=O)(=O)c4ccc(Cl)cc4)cc3C(=O)N([C@H](C)CO)C[C@H]2C)cc1 | inactive | inactive | inactive
8 | CC(C)NC(=O)Nc1ccc2c(c1)C(=O)N([C@@H](C)CO)C[C@@H](C)[C@H](CN(C)Cc1ccc(C(F)(F)F)cc1)OCCCC[C@@H](C)O2 | inactive | inactive | inactive
9 | Cc1ccc(S(=O)(=O)N(C)C[C@H]2Oc3ccc(NS(=O)(=O)c4ccccc4)cc3CC(=O)N([C@@H](C)CO)C[C@@H]2C)cc1 | inactive | inactive | inactive
10 | COc1cccc(S(=O)(=O)N(C)C[C@@H]2Oc3cc(C#CCC(C)C)ccc3S(=O)(=O)N([C@@H](C)CO)C[C@@H]2C)c1 | inactive | inactive | inactive
11 | COc1ccc(CNC(=O)C[C@@H]2C[C@@H]3c4cc(NC(=O)NC5CCCC5)ccc4O[C@@H]3[C@@H](CO)O2)cc1 | inactive | inactive | inactive
12 | C[C@@H]1CN([C@@H](C)CO)C(=O)c2cc(NC(=O)Cc3ccccc3)ccc2O[C@@H](C)CCCCO[C@@H]1CN(C)Cc1ccc2c(c1)OCO2 | inactive | inactive | inactive
13 | C[C@H](CO)N1C[C@H](C)[C@H](CN(C)S(=O)(=O)c2ccc(Cl)cc2)OCCCC[C@H](C)Oc2ccc(NS(=O)(=O)c3ccc(F)cc3)cc2C1=O | inactive | active | inactive
14 | COc1ccc(-c2nc(-c3ccc(C)cc3C)cs2)cc1 | inactive | inactive | inactive
15 | C[C@H]1CN([C@@H](C)CO)S(=O)(=O)c2ccc(-c3ccncc3)cc2O[C@H]1CN(C)C(=O)c1ccc2c(c1)OCO2 | inactive | inactive | inactive
16 | C[C@@H]1CN([C@@H](C)CO)C(=O)Cc2cc(NS(=O)(=O)c3ccc(F)cc3)ccc2O[C@@H]1CN(C)S(=O)(=O)c1ccccc1 | inactive | inactive | inactive
17 | C[C@@H]1CN([C@H](C)CO)C(=O)c2cc(-c3cncnc3)cnc2O[C@@H]1CN(C)C(=O)Nc1ccc2c(c1)OCO2 | inactive | inactive | inactive
18 | COc1ccc(NC(=O)Nc2ccc3c(c2)C(=O)N([C@H](C)CO)C[C@@H](C)[C@@H](CN(C)C(=O)NC2CCCCC2)OCCCC[C@H](C)O3)cc1 | inactive | inactive | inactive
19 | C[C@@H]1CCCCO[C@H](CN(C)S(=O)(=O)c2ccc(Cl)cc2)[C@@H](C)CN([C@@H](C)CO)C(=O)c2cc(NC(=O)Nc3ccc4c(c3)OCO4)ccc2O1 | inactive | inactive | inactive
20 | C[C@@H]1CCCCO[C@H](CN(C)Cc2ccccc2)[C@@H](C)CN([C@H](C)CO)C(=O)c2cc(NC(=O)CCCCCC(=O)Nc3ccccc3N)ccc2O1 | inactive | inactive | inactive
21 | COc1ccc(NC(=O)Nc2ccc3c(c2)C(=O)N([C@H](C)CO)C[C@@H](C)[C@@H](CN(C)Cc2ccc(Cl)c(Cl)c2)O3)cc1 | inactive | inactive | inactive
22 | COc1ccccc1N=C(NO)c1nonc1N | inactive | inactive | inactive
23 | CC(C)NC(=O)N(C)C[C@H]1Oc2ccc(NC(=O)CCC(F)(F)F)cc2CC(=O)N([C@@H](C)CO)C[C@H]1C | inactive | inactive | inactive
24 | C[C@@H]1CCCCO[C@H](CN(C)C(=O)CCC(F)(F)F)[C@H](C)CN([C@H](C)CO)C(=O)c2cc(NC(=O)c3ccccc3)ccc2O1 | inactive | inactive | inactive

From the antibiotic and cytotoxicity screens of Wong et al. (2023)
